Each block holds one binder with its values, some of them ahead of it.
Columns and labels:
[1] = molecular target: T1, human TNFR2-Fc (etanercept) (human, UniProt P20333 23-257); assay: ELISA on coated etanercept, mean ± S.D., n = 3
T1 construct: Commercial drug coated on ELISA plates (200 ng/well); also called immobilized TNF-R2; not shown: Fc part of etanercept
T1 sequence (looked up): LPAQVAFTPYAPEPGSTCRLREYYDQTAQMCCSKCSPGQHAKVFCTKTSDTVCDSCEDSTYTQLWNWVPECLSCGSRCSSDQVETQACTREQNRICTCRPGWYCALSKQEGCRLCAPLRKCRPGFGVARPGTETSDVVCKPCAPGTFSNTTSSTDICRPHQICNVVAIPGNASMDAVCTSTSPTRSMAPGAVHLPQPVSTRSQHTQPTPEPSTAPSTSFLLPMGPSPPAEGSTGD
Protocol: The binding of the scTNFR2-Fc(Δab) complexes to TNFR2-Fc (etanercept) was analyzed by ELISA. 96-well ELISA plates were coated with 200 ng/well etanercept in coating buffer (0.1 M sodium carbonate, pH 9.5) overnight at 4° C., blocked with 2% skim milk in PBS (MPBS) and washed with washing buffer PBST (PBS, 0.05 Tween 20). ScTNFR2-Fc(Δab) complexes were titrated in duplicates and incubated on the plates for 2 h at room temperature, followed by washing with PBST. Receptor-bound complexes were detected with mouse anti-huTNFα F6C5 (Novus, 1 μg/ml) and goat anti-mouse IgG(Fc)-HRP (Sigma-Aldrich, 1:10,000), followed by extensive washing with PBST each.

[2] = molecular target: T2, human TNFR2 on stably transfected cells (MEF-TNFR2, HeLa-TNF-R2) (human, UniProt P20333 23-461); assay: flow cytometry on HeLa-TNF-R2 cells after 8 days at 37 °C in 50% human blood plasma, experiment 3
T2 construct: whole, on cells; Same receptor on two transfected cell lines; the cell line is named under assay; also called human TNF receptor 2
T2 sequence (looked up): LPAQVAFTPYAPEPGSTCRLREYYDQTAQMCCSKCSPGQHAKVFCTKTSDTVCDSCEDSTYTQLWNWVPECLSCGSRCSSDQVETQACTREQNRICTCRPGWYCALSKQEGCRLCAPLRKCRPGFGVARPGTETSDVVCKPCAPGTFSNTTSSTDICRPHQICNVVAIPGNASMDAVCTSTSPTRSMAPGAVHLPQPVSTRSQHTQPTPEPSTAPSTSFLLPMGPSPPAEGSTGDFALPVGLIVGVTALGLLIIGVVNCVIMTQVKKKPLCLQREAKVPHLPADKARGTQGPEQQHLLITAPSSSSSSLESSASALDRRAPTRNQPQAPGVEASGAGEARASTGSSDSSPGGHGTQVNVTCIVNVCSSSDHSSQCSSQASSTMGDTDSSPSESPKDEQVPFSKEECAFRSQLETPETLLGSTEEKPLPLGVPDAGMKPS
Protocol: (§1) FIG. 10: Stability of scTNFR2-Fc(Δab) complexes in human blood plasma. The integrity of the scTNFR2-Fc(Δab) complexes after incubation for 0 days (control), 3 days or 8 days in 50% human blood plasma at 37° C. was tested by their ability to bind HeLa-TNF-R2 cells in flow cytometry. The percentage of intact protein (mean±S. D., n=4) was calculated from reciprocals of the EC₅₀ values which were normalized to the non-incubated control (100%). Statistical analysis was performed by two-way ANOVA and Dunnett's post-test. Results were summarized as ****p <0.0001; ***p <0.001; **p <0.01; *p <0.05; n. s.=not significant.
(§2) The stability of the scTNFR2-Fc(Δab) proteins in human blood plasma after incubation periods of 3 and 8 days at 37° C. was assayed by binding of protein samples to HeLa cells stably overexpressing TNF-R2 (HeLa-TNF-R2, Richter et al., 2012, Mol. Cell Biol. 32, 2515-2529). […] After incubation, samples were stored at −80° C. and thawed prior testing the protein integrity by binding to HeLa-TNF-R2 in flow cytometry. […] Bound protein was detected with goat anti-human IgG Fcγ fragment specific-R-phycoerythrin antibody (Jackson ImmunoResearch, 1:500) for 1 h at 4° C. After two final washing steps with FACS buffer, cells were analyzed with a MACSQuant® VYB flow cytometer equipped with a 586/15 nm filter for detection of phycoerythrin.

[3] = molecular target: T2, human TNFR2 on stably transfected cells …; assay: flow cytometry on HeLa-TNF-R2 cells after 3 days at 37 °C in 50% human blood plasma, experiment 3
Protocol: as §1, §2

[4] = molecular target: T2, human TNFR2 on stably transfected cells …; assay: flow cytometry on HeLa-TNF-R2 cells after 8 days at 37 °C in 50% human blood plasma, experiment 1
Protocol: as §1, §2

- EC50 [1]: 0.419 nM
- EC50 [2]: 0.0767 nM
- EC50 [3]: 0.0784 nM
- EC50 [4]: 0.082 nM
B1: scTNFR2(118)-Fc(Δab) (745) (Fc fusion)
chain: [about 150 residues not given here]GGGGSSSRTPSDKPVAHVVANPQAEGQLQWLNRRANALLANGVELRDNQLVVPSEGLYLIYSQVLFKGQGCPSTHVLLTHTISRIAVSYQTKVNLLSAIKSPCQRETPEGAEAKPWYEPIYLGGVFQLEKGDRLSAEINRPDYLNFRESGQVYFGIIALGGGGSSSRTPSDKPVAHVVANPQAEGQLQWLNRRANALLANGVELRDNQLVVPSEGLYLIYSQVLFKGQGCPSTHVLLTHTISRIAVSYQTKVNLLSAIKSPCQRETPEGAEAKPWYEPIYLGGVFQLEKGDRLSAEINRPDYLNFRESGQVYFGIIALGGSGGGGSGGDKTHTCPPCPAPPVAGPSVFLFPPKPKDTLMISRTPEVTCVVVDVSHEDPEVKFNWYVDGVEVHNAKTKPREEQYNSTYRVVSVLTVLHQDWLNGKEYKCKVSNKGLPSSIEKTISKAKGQPREPQVYTLPPSRDELTKNQVSLTCLVKGFYPSDIAVEWESNGQPENNYKTTPPVLDSDGSFFLYSKLTVDKSRWQQGNVFSCSVMHEALHNHYTQKSLSLSPGK
notes: Hexavalent dimer through the Fc(Δab) region; no His tag

- EC50 [1]: 0.309 nM
- EC50 [2]: 0.0746 nM
- EC50 [3]: 0.0654 nM
- EC50 [4]: 0.0576 nM
B2: scTNFR2(139)-Fc(Δab) (744) (Fc fusion)
chain: [about 150 residues not given here]GGGGSDKPVAHVVANPQAEGQLQWLNRRANALLANGVELRDNQLVVPSEGLYLIYSQVLFKGQGCPSTHVLLTHTISRIAVSYQTKVNLLSAIKSPCQRETPEGAEAKPWYEPIYLGGVFQLEKGDRLSAEINRPDYLNFRESGQVYFGIIALGGGGSDKPVAHVVANPQAEGQLQWLNRRANALLANGVELRDNQLVVPSEGLYLIYSQVLFKGQGCPSTHVLLTHTISRIAVSYQTKVNLLSAIKSPCQRETPEGAEAKPWYEPIYLGGVFQLEKGDRLSAEINRPDYLNFRESGQVYFGIIALGGSGGGGSGGDKTHTCPPCPAPPVAGPSVFLFPPKPKDTLMISRTPEVTCVVVDVSHEDPEVKFNWYVDGVEVHNAKTKPREEQYNSTYRVVSVLTVLHQDWLNGKEYKCKVSNKGLPSSIEKTISKAKGQPREPQVYTLPPSRDELTKNQVSLTCLVKGFYPSDIAVEWESNGQPENNYKTTPPVLDSDGSFFLYSKLTVDKSRWQQGNVFSCSVMHEALHNHYTQKSLSLSPGK
notes: as for B1
